Assay [1] addresses T1, full-length Insv (yeast two-hybrid fusion) (Drosophila) (UniProt Q8SYK5).
T1 sequence: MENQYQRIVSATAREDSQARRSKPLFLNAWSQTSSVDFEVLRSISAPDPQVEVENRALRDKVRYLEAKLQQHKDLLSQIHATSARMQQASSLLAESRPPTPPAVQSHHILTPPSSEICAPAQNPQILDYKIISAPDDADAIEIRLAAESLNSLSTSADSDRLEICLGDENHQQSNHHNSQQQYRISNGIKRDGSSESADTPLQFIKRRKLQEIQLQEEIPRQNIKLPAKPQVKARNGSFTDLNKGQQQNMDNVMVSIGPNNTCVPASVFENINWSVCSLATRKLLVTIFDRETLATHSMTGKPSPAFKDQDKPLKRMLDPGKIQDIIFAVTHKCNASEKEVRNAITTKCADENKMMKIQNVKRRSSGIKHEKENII
Nature of the assay: two-hybrid; yeast strain pJ694A, vectors pGBT9 and pGAD424; growth on media without tryptophan, leucine, histidine and adenine compared after 2-3 days; repeated three times.

Assay [2] deals with T2, MBP-Insv[1-267] (Drosophila) (UniProt Q8SYK5).
T2 sequence: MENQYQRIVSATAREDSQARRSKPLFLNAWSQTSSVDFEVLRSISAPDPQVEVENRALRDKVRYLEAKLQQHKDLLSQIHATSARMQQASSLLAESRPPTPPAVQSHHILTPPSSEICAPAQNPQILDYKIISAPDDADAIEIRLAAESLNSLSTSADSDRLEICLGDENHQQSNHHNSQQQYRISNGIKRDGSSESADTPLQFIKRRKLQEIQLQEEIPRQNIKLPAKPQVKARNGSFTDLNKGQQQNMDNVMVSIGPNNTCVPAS
Nature of the assay: pull-down; MBP pull-down on Immobilized Amylose Agarose in buffer C (20 mM HEPES-KOH pH 7.7, 150 mM NaCl, 10 mM MgCl2, 0.1 mM ZnCl2, 0.1% NP40, 10% glycerol); lysate of BL21 cells co-expressing both proteins; washed with 500 mM NaCl.

The target in assay [3] is HT:N1-213 (Drosophila) (UniProt Q8SYK5). Briefly: SEC; gel filtration of HT:N1-213; column not stated; both purified. (In general: Size exclusion chromatography separates by hydrodynamic size, large species first.)
The target in assay [4] is T3, TRX-6xHis-CP190 [1-126] (Drosophila) (UniProt Q24478).
T3 sequence: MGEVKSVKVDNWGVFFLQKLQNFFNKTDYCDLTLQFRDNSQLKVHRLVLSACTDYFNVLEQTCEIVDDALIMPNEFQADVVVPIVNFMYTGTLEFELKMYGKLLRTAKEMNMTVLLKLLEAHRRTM
Briefly: pull-down; 6xHis pull-down on Co-IDA resin in buffer A, washed with 30 mM imidazole; performed similarly to the MBP pull-down (co-expressed in BL21).

For assay [5], the target named is T4, CP190 aa 1-166 (yeast two-hybrid fusion) (Drosophila) (UniProt Q24478).
T4 sequence: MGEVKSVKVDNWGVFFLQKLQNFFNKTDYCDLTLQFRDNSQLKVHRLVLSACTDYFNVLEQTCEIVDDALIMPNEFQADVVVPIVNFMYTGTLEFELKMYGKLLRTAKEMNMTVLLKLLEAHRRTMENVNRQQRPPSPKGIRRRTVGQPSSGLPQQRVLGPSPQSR
Nature of the assay: two-hybrid; yeast strain pJ694A, vectors pGBT9 and pGAD424; growth on media without tryptophan, leucine, histidine and adenine compared after 2-3 days; repeated three times.

Assay [6] concerns the target T5, CP190 aa 309-470 (yeast two-hybrid fusion) (Drosophila) (UniProt Q24478).
T5 sequence: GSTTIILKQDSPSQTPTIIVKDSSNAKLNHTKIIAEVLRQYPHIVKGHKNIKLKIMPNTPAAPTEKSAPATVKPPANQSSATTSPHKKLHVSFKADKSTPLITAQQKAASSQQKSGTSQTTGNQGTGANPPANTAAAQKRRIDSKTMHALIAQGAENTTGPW
The assay is described as above.

For assay [7], the target named is T6, full-length CP190 (yeast two-hybrid fusion) (Drosophila) (UniProt Q24478).
T6 sequence: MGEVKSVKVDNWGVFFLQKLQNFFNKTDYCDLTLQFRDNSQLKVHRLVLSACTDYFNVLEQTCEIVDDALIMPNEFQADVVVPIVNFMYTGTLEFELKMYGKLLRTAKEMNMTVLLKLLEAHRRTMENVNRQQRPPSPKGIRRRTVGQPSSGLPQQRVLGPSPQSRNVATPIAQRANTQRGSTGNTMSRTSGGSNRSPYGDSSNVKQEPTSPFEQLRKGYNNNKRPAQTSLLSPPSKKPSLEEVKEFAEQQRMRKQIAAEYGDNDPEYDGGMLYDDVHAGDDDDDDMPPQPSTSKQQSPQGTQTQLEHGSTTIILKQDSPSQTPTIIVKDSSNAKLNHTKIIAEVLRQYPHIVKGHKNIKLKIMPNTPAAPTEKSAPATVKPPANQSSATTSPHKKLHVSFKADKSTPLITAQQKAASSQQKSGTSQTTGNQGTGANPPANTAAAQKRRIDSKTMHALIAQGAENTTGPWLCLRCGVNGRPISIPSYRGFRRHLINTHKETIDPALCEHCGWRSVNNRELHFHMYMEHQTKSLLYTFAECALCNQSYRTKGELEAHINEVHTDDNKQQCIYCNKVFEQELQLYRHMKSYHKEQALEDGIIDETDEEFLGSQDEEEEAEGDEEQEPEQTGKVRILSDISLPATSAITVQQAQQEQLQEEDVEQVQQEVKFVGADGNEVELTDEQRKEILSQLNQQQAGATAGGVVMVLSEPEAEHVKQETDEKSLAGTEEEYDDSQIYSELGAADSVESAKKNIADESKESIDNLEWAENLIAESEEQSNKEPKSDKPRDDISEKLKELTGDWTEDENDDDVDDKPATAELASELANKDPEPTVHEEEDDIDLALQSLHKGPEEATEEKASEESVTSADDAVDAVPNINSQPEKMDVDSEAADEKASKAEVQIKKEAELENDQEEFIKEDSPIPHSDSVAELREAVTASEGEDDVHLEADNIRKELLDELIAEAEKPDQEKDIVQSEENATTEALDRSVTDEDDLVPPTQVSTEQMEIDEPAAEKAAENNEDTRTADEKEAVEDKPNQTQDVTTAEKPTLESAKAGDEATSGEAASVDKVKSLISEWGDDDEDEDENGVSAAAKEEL
The assay is described as above.

These are yes or no findings as the source states them, for the method shown. For part of these data: Binding seen in cells or lysates may run through a third protein. Some results given as binding are weak or reduced against the parent protein; the word gives no strength. For part of these data: Sequences can lack the tags named with a protein.

B1: His-Sumo C-BEN (HS:C-BEN) (domain or fragment, Drosophila, UniProt Q8SYK5 210-376, looked up)
chain: LQEIQLQEEIPRQNIKLPAKPQVKARNGSFTDLNKGQQQNMDNVMVSIGPNNTCVPASVFENINWSVCSLATRKLLVTIFDRETLATHSMTGKPSPAFKDQDKPLKRMLDPGKIQDIIFAVTHKCNASEKEVRNAITTKCADENKMMKIQNVKRRSSGIKHEKENII
notes: Insensitive (Insv), Drosophila; C domain plus BEN domain; 'lacks amino acids 1-209'; elsewhere the C domain is said to extend from aa 209 to aa 253; about 32 kDa with the tag; source: E. coli, purified (Ni-NTA Agarose); not shown: His6, N-terminal, kept; Sumo, N-terminal, kept
On to B1, for which the binding result in assay [1] was “no binding”.

B2: TRX-6xHis-CP190 [1-126] (domain or fragment, UniProt Q24478 1-126)
chain: MGEVKSVKVDNWGVFFLQKLQNFFNKTDYCDLTLQFRDNSQLKVHRLVLSACTDYFNVLEQTCEIVDDALIMPNEFQADVVVPIVNFMYTGTLEFELKMYGKLLRTAKEMNMTVLLKLLEAHRRTM
Regarding B2, in assay [2], the binding result is “binds”.

B3: Insv d50-79 (yeast two-hybrid fusion) (protein, UniProt Q8SYK5)
chain: MENQYQRIVSATAREDSQARRSKPLFLNAWSQTSSVDFEVLRSISAPDPHATSARMQQASSLLAESRPPTPPAVQSHHILTPPSSEICAPAQNPQILDYKIISAPDDADAIEIRLAAESLNSLSTSADSDRLEICLGDENHQQSNHHNSQQQYRISNGIKRDGSSESADTPLQFIKRRKLQEIQLQEEIPRQNIKLPAKPQVKARNGSFTDLNKGQQQNMDNVMVSIGPNNTCVPASVFENINWSVCSLATRKLLVTIFDRETLATHSMTGKPSPAFKDQDKPLKRMLDPGKIQDIIFAVTHKCNASEKEVRNAITTKCADENKMMKIQNVKRRSSGIKHEKENII
On to B3, for which the binding entry in assay [1] is reported as “no binding”.

B4: HT:N1-213 (domain or fragment, Drosophila, UniProt Q8SYK5 1-213, looked up)
chain: MENQYQRIVSATAREDSQARRSKPLFLNAWSQTSSVDFEVLRSISAPDPQVEVENRALRDKVRYLEAKLQQHKDLLSQIHATSARMQQASSLLAESRPPTPPAVQSHHILTPPSSEICAPAQNPQILDYKIISAPDDADAIEIRLAAESLNSLSTSADSDRLEICLGDENHQQSNHHNSQQQYRISNGIKRDGSSESADTPLQFIKRRKLQEI
notes: source: E. coli, purified (Ni-NTA Agarose); not shown: His6, N-terminal, kept; Thioredoxin, N-terminal, kept
Take B4: the binding result in assay [3] is on record as “binds”.

B5: HT:N1-267 (domain or fragment, Drosophila, UniProt Q8SYK5 1-267, looked up)
chain: MENQYQRIVSATAREDSQARRSKPLFLNAWSQTSSVDFEVLRSISAPDPQVEVENRALRDKVRYLEAKLQQHKDLLSQIHATSARMQQASSLLAESRPPTPPAVQSHHILTPPSSEICAPAQNPQILDYKIISAPDDADAIEIRLAAESLNSLSTSADSDRLEICLGDENHQQSNHHNSQQQYRISNGIKRDGSSESADTPLQFIKRRKLQEIQLQEEIPRQNIKLPAKPQVKARNGSFTDLNKGQQQNMDNVMVSIGPNNTCVPAS
notes: as for B4
With B5, the binding result in assay [4] is recorded as “binds”.

B6: full-length Insv (yeast two-hybrid fusion) (protein, UniProt Q8SYK5 1-376)
chain: MENQYQRIVSATAREDSQARRSKPLFLNAWSQTSSVDFEVLRSISAPDPQVEVENRALRDKVRYLEAKLQQHKDLLSQIHATSARMQQASSLLAESRPPTPPAVQSHHILTPPSSEICAPAQNPQILDYKIISAPDDADAIEIRLAAESLNSLSTSADSDRLEICLGDENHQQSNHHNSQQQYRISNGIKRDGSSESADTPLQFIKRRKLQEIQLQEEIPRQNIKLPAKPQVKARNGSFTDLNKGQQQNMDNVMVSIGPNNTCVPASVFENINWSVCSLATRKLLVTIFDRETLATHSMTGKPSPAFKDQDKPLKRMLDPGKIQDIIFAVTHKCNASEKEVRNAITTKCADENKMMKIQNVKRRSSGIKHEKENII
With B6, the binding result in assay [5], in assay [6], in assay [7] and in assay [1] was “binds” each time.

The values are drawn from article PMC6317261, “Functional dissection of the developmentally restricted BEN domain chromatin boundary factor Insensitive” (Epigenetics & Chromatin, 2019).
